The values below come from US20230348629A1 (BEIJING MABWORKS BIOTECH, published 2023).

The target of assay [1] is T1, human VEGF-A molecules (Cat #:11066-HNAN, Sino Biological) (human, UniProt P15692-4 27-191).
T1 construct: Bought protein; also called human/monkey VEGF; VEGF molecules
T1 sequence (looked up): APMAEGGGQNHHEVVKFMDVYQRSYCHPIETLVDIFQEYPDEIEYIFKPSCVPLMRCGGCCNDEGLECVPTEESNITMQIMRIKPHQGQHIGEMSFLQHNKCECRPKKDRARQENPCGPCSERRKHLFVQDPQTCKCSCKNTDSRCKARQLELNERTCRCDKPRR
Nature of the assay: SPR (BIAcore 8K), human VEGF-A coupled to the chip, antibody injected. An excerpt:
Using BIAcore™ 8K instrument (GE Life Sciences, US), the binding affinity of the bispecific molecules of the disclosure to human TIGIT and VEGF was quantitatively measured. Briefly, 100-200 response units (RU) of human TIGIT-his protein (Cat #:10917-H08H, Sino Biological, CN) or human VEGF-A (Cat #:11066-HNAN, Sino Biological, CN) were coupled to CMS biosensor chips (Cat #:BR-1005-30, GE Life Sciences, US). The un-reacted groups were then blocked with 1M ethanolamine Serially diluted antibodies at concentrations ranging from 0.3 μM to 10 μM were injected into the SPR running buffer (HBS-EP buffer, pH7.4, Cat #:BR-1006-69, GE Life Sciences, US) at 30 μL/min. The binding affinity was calculated with the RUs of blank controls subtracted, and the association rate (kₐ) and dissociation rate (kd) were determined using the one-to-one Langmuir binding model (BIA Evaluation Software, GE Life Sciences, US). The equilibrium dissociation constant KD was calculated as the kd/kₐ ratio.
Background: SPR reads the build-up and loss of mass on a sensor chip optically.

Assay [2] addresses T2, human VEGF-C-his molecules (Cat #:VEC-H4225, Acrobiosystems) (human, UniProt P49767 103-227, limits assumed).
T2 construct: Bought protein; not shown: his tag
T2 sequence (looked up): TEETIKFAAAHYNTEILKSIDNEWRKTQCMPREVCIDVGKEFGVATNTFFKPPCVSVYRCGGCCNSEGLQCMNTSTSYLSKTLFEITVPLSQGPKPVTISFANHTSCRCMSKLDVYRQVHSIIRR
Nature of the assay: ELISA, plate coated with human VEGF-C-his, antibody titrated (axis labelled MFI). The procedure:
Briefly, an ELISA plate was coated with 100 μl 500 ng/ml human VEGF-A molecules (Cat #:11066-HNAN, Sino Biological, CN), mouse VEGF-A molecules (Cat #:50159-MNAB, Sino Biological, CN), human VEGF-B-his molecules (Cat #:VE6-H5225, Acrobiosystems Co., CN) and human VEGF-C-his molecules (Cat #:VEC-H4225, Acrobiosystems Co., CN) respectively overnight at 4° C. […] The ELISA plate was added with freshly prepared Ultra-TMB (Cat #:555214, BD, USA), and left still for 5 min for color development. The absorbance was read at 450 nm using SpectraMax® i3X microplate reader.
Background: An ELISA detects its analyte on a solid surface through an enzyme-linked reagent.

B1: MBS310-7 (bispecific antibody, human IgG1, kappa)
heavy: EVQLVESGGGLVQPGGSLRLSCAASGYTFTNYGMNWVRQAPGKGLEWVGWINTYTGEPTYAADFKRRFTFSLDTSKSTAYLQMNSLRAEDTAVYYCAKYPHYYGSSHWYFDVWGQGTLVTVSSASTKGPSVFPLAPSSKSTSGGTAALGCLVKDYFPEPVTVSWNSGALTSGVHTFPAVLQSSGLYSLSSVVTVPSSSLGTQTYICNVNHKPSNTKVDKKV[sequence of human IgG1 Fc not given]GGGGSGGGGSGGGGSQVQLVQSGAEVKKPGASVKVSCKASGYTFTSYNVHWVRQAPGQGLEWMGTIYPGNLATSYNQKFKGRVTLTADTSTSTVYMELSSLRSEDTAVYYCARSGTMDYWGQGTTVTVSSGGGGSGGGGSGGGGSGGGGSEIVLTQSPGTLSLSPGERATMTCRASSSISSTYLHWYQQKPGASPKLLIYNTQNLASGVPARFSGSGSGTSYTLTISRLEPEDEAVYYCQQFGGYPLITFGAGTKLTAKR
light: DIQMTQSPSSLSASVGDRVTITCSASQDISNYLNWYQQKPGKAPKVLIYFTSSLHSGVPSRFSGSGSGTDFTLTISSLQPEDFATYYCQQYSTVPWTFGQGTKVEIKRTVAAPSVFIFPPSDEQLKSGTASVVCLLNNFYPREAKVQWKVDNALQSGNSQESVTEQDSKDSTYSLSSTLTLSKADYEKHKVYACEVTHQGLSSPVTKSFNRGEC
notes: also called MBS30-7; symmetrical anti-VEGF/TIGIT bispecific antibody
Broadly, the Kd is a measure of binding affinity in units of concentration. Higher therefore signals lower affinity. The molecule B1 registered a Kd in assay [1] of 0.127 nM. For the same molecule, the binding result in assay [2] was “no binding (tested: about 100 nM (LOG.Con about 2))”.
